According to the supplement of paper PMC11417369:
The list shows a part of the results.

What follows are sequences tested on PfHDP1 homeodomain (GST-tagged) (assay: gcPBM binding intensity (ln(normalized median fluorescence intensity)); higher = stronger DNA binding).
In short: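 Alexa488 anti-GST antibody, scanned at 488 nm, detected GST-tagged P. falciparum DNA-binding domains that had been expressed in E. coli and incubated for 1 h on an Agilent 4 × 180k array. The array carried primer-extended double-stranded 36-bp intergenic genomic probes and negative controls. Binding intensity is the highest Masliner-normalised natural-log median intensity across replicate spots of either orientation of each probe.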

Sequence	gcPBM binding intensity (ln)
CATATACATACACATACACACATACACCCATACACA [CACACA_site8514]	7.31
TGTAAAAAATTTAACACACACATATATAAATATGTA [CACACA_site7261]	6.3
ATATAATAGTATATATGTACATATATTTAAATACTA [XGTACX_site1135]	6.55
TATATTATAATTTGAAGTACATTTTAAATTAACTAA [XGTACX_site1013]	6.01
AAAAAAAAAAAACACACACACACACCCACAAAATAT [CACACA_site1447]	6.92
AAAAAAAAATACCTACGTACATATATATATTATATA [XGTACX_site3983]	6.38
CTTTATCTTCTCACGAAGATTGAATAAGGTATTCTT [XGTACX_negctrl_site307]	5.58
CAGACAATAAAGAAGTGTACACATATATCAATAAAA [XGTACX_site4515]	7.31
TTAATGCACTTTATTACACACACTAGTTCATTACCT [CACACA_site2294]	10.2
AGAGAGAGAAATACAAGTACATGTGAAACCAATCTA [XGTACX_site2767]	6.69
AAAAAATAAAAAAAAACACACACATACAAGCATATA [CACACA_site8451]	6.8
AAAAAAAACAAATACACACGCACACCGAAAAAAAAA [CACACA_site803]	6.77
TTCAACATAATATGCACACAAAAATTATGGAACGAA [CACACA_site2111]	10.3
AAAAAAAAAAAAATTGCACACAAAAAAAAAAAAAAA [CACACA_site8644]	9.28
TTTGTGTGTGCGTGTGCATGTTGTTTTTTTCTATAA [TGCATGCA_site17]	8.6
AATATAATAACTTATTGTACGAAATTATATCACCTT [XGTACX_site7883]	6.44
TATTCACATACAGAAACACACACATATATATAAATT [CACACA_site9232]	6.84
ATATATGTATATATTTGTACATATAATATTTTTTAA [XGTACX_site6345]	6.11
ATTTGTAATTTATTCAAACACACAATTTGGACCTTT [CACACA_site1062]	6.19
TAATTAAGCATAAATATAATTTTATATTTTATTTCC [XGTACX_negctrl_site321]	5.89
TAACATAGCAATGTTTCACACACAAGAAAAAATACA [CACACA_site8747]	6.99
TGCAGTCTGGAGAAAAGTACATAGTATCTGGTAGCT [XGTACX_site2547]	6.4
TCATATTTATATAAATGTACTTAATTGGTTTCTTTA [XGTACX_site7848]	6.38

Sequence	gcPBM binding intensity (ln)
ATGTTATTAATAATTGCACACATTTTTTTTTTTTTT [CACACA_site3920]	9.71
AGATTGTAAGTAAACACACACACATATATATGTATA [CACACA_site675]	6.67
TTTTTGTAACCGATTCTGCACTGAGAAGCACATATA	7.23
GGCATATATATATGCACACATACATATATACATGTG [CACACA_site3859]	10.4
TACACATACAGACATACACACATACCCATATACTCA [CACACA_site5037]	7.11
ATATTATACGCATATGTGCGCATACATTTTTTTGCA [GTGCAC_site9540]	7.53
GAAATTACTTTATAAACACACATTTATTTTATTTTA [CACACA_site7007]	6.55
TTATTTACAAAACAAATCAAAATATCCAAAAGAATA [CACACA_negctrl_site1789]	6.01
ATTCATTCCATACTTTAACACACAAATATATTTAAT [CACACA_site7930]	6.91
AAAAAAAAAAAAAACACACAGAAATATATATATATT [CACACA_site832]	6.37
AAAGGAAAAGTTGACTGTACATAAGTAAAAAATAAT [XGTACX_site788]	6.93
TTTATACAAATATGTACACACTAAATATATATTATG [CACACA_site4413]	6.77
ATTATTTGATTAAAGGTGCAAGGATAATAATAAAAC	8.28
TAATGGTATAAAAAATGTACATGTTTTTTTACAATT [XGTACX_site4285]	6.26
ATATATATATATTTATGTACATATTATTTATTCTTT [XGTACX_site6567]	8.83
ACATATAATAAAATAGTGCATTGTTAGTTTTATATA	9
TATTATATAATATACTGTACAATATCCATTATTTAC [XGTACX_site7091]	6.6
TATATTTACTTATATGCACACATAAATGTGAATTAT [CACACA_site9258]	9.85
GTTAATCACCATGTGGTGCATATAAGGGCATATTAT [GTGCAC_site9748]	10.3
TCTTTTATATATAATAATTATATATAACATTCAAAC [GTGCAC_negctrl_site112]	6.81
AATTAATAAAAAAGGTGTACAGTAAATGCAATAATC [XGTACX_site7956]	8.08
ATAAATTCATACATTTGTACACAAAAAAAAAAAAAA [XGTACX_site2435]	6.56
